Screen size: about 310,000 compounds; about 2,200 (0.71%) showed an effect of 50% or more. Effects have a minus sign here. Some of the results follow.
target: human ether-à-go-go-related gene (hERG) potassium channel (human, UniProt Q12809); experiment: primary screen, population patch clamp on CHO cells stably expressing hERG
Sequence (Q12809 whole entry, looked up): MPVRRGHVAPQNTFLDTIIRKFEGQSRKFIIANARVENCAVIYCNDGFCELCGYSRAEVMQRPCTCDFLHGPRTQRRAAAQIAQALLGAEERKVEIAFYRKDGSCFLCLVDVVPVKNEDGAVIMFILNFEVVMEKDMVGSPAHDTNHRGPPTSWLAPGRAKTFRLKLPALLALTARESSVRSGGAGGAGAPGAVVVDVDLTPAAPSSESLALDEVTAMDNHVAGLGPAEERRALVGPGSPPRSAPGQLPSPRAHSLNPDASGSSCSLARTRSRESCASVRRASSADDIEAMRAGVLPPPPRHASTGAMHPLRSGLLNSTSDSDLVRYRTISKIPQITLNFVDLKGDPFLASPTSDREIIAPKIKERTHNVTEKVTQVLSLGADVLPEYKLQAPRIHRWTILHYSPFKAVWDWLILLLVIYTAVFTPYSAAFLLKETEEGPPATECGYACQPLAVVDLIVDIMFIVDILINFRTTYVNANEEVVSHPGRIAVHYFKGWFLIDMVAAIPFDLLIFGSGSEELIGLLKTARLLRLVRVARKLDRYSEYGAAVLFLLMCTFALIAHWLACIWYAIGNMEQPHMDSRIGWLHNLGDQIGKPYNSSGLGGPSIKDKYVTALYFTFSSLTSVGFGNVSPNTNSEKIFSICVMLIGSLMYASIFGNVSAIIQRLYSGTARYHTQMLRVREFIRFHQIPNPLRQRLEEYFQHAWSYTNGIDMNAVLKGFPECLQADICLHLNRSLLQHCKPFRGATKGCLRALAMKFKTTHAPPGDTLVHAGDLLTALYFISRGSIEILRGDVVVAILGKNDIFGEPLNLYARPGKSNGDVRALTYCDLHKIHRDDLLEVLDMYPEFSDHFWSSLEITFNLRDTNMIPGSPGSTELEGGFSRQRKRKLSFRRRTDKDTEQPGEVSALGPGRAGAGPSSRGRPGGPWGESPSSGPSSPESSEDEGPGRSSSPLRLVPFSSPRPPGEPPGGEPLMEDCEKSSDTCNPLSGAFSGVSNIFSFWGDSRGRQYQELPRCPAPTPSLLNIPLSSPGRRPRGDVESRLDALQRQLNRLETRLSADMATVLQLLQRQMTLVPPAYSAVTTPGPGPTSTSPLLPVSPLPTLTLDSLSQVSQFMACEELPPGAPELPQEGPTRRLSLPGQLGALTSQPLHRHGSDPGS

SMILES | hERG current change (%, negative = inhibition) at 1uM
CCN1CCN(C(=S)NCCc2ccccc2)CC1.O=C(O)C(=O)O | 2.76%
O=C(c1cc2ccccc2o1)N1CC=C(c2ccccc2)CC1 | 12.8%
COc1cc(C2c3sc(=O)[nH]c3SC3C(=O)N(c4ccc(C)cc4)C(=O)C32)ccc1O (centres unmarked) | 7.83%
COc1ccc(Cc2nnc(NC(=O)Nc3ccccc3)s2)cc1OC | 16.7%
S=c1[nH]nc(-c2ccncc2)n1/N=C/c1cccc2ccccc12 | 7.22%
CC(Cc1cccs1)NC(=O)Nc1ccc(Cl)cc1 (centres unmarked) | 7.83%
Cc1noc(C)c1COc1ccc(C(=O)OCC(=O)NCCN2C(=O)CSC2=O)cc1 | -0.892%
FC(F)(F)c1cccc(N2CCN(C3CC4CCC3C4)CC2)c1 (centres unmarked) | 13.7%
CCC(CO)Oc1cc(NC(=O)c2ccccc2)c2ncn(C(C)C)c2c1 (centres unmarked) | 9.51%
Cc1cc(NS(=O)(=O)c2ccc(NC(=O)CCCOc3ccccc3C)cc2)no1 | 6.24%
CCN(CC)CCNC(=O)c1cn(CC)c2ccc(S(=O)(=O)N(C)C3CCCCC3)cc2c1=O | 9.42%
O=C(c1ccccc1)N1CCN(C(=O)c2ccccc2Br)CC1 | 14.6%
Cc1ccc(/C=C2\SC(=S)N(Cc3ccccc3)C2=O)o1 | 10.3%
CCc1cc(=S)n2c([nH]c3ccccc32)c1C#N | 23%
c1ccc(CNc2ncnc3sccc23)cc1 | 11.6%
CCNc1c(C(=O)O)ccc2c1C(=O)c1ccccc1C2=O | 18.7%
CC1CCCC(NC(=O)c2cccc(S(=O)(=O)N3CCCCC3)c2)C1C (centres unmarked) | 5.31%
COc1ccc(CCNC(=O)Cn2c(=O)cnc3ccccc32)cc1 | -7.02%
Cc1ccc(NC(=O)Nc2ccc([N+](=O)[O-])cc2)nc1 | 8.38%
CCCC[n+]1ccn(-c2nc3ccccc3nc2[N-]S(=O)(=O)c2ccc(C)cc2)c1 | 1.49%
CC(C)Cc1nnc(NC(=O)c2cc3c(s2)CCC3)s1 | 15.9%
Cc1ccc(C)c(OCCCC(=O)N2CCOCC2)c1 | -16.2%
O=C(Nc1sc2c(c1C(=O)NCC(O)CO)CCCC2)c1ccccc1 (centres unmarked) | 11%
c1nc(N2CCOCC2)c2c3c(sc2n1)CCCC3 | 7.09%
CC(=O)N1CCN(C(=O)C2(NC(=O)Nc3ccccc3Cl)CCCCC2)CC1 | 14.2%
O=C(C1CCN(c2nnnn2-c2ccccc2)CC1)N1CCN(c2ccccc2)CC1 | -0.0552%
